Measured values from PubChem BioAssay (NCATS).
“And” between values parts separate entries of the source, which are not always exact repeats. Equal values may be shown once. Inconclusive means that the source gave no clear call. Such entries were picked first, then a sample of the others. Potencies beside an inconclusive call are fits to weak or partial responses and may not hold up. The source made the active and inactive calls. Calls follow the shape of the dose curve; as a rule, active = well fitted curve in the direction sought with a large enough effect; inconclusive = small, poorly fitted or top-dose-only effect, or another doubt; inactive = no such curve, though single readings can be large; an effect the other way counts as inactive or inconclusive.

How the values were obtained:
[1] = Viability qHTS for spleen associated tyrosine kinase inhibitor (SYKi) naive MV4-11 cells (AID 1963823); conditions: MV4-11 AML viability, CellTiter-Glo luminescence, 72 h; series mostly up to 45 µM; also: nearly all actives have a fitted effect of over 40% in size
How it was run: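 Cells: MV4-11, SYK inhibitor naive, 500 per well. Treatment: library compounds, 72 hr, 37 C, 5% CO2. Read-out: CellTiter-Glo luminescence after 10 min RT.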

[2] = Quantitative highthroughput screen to assess conditional lethalithy of NOMO1 cells grown in RPMI1640 with untreated serum (RPMI+s) (AID 1963876); conditions: NOMO1 AML cells in RPMI+serum, CellTiter-Glo viability, 48 h; viability: at 45.8 µM (top of the series); also: nearly all actives have a fitted effect of over 35% in size
How it was run: (§1)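 Each medium arm—HPLM with 10% dialyzed FBS, or RPMI1640 with 5 mM glucose and 10% untreated or dialyzed FBS—was screened against an 11-point, 3-fold compound titration for 48 h at 37 °C, with CellTiter-Glo luminescence as endpoint.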

[3] = Quantitative highthroughput screen to assess conditional lethalithy of NOMO1 cells grown in RPMI1640 with dialyzed fetal bovine serum (RPMI+ds) (AID 1963877); also: nearly all actives have a fitted effect of over 30% in size
How it was run: as §1

[4] = Quantitative highthroughput screen to assess conditional lethalithy of NOMO1 cells grown in Human Plasma-Like Medium with dialyzed fetal bovine serum (HPLM+ds) (AID 1963878); conditions: NOMO1 AML cells in HPLM+ds, CellTiter-Glo viability, 48 h; viability: at 45.8 µM (top of the series); also: nearly all actives have a fitted effect of over 35% in size
How it was run: as §1

[5] = Quantitative highthroughput screen to assess conditional lethalithy of P12 Ichikawa cells grown in Human Plasma-Like Medium with dialyzed fetal bovine serum (HPLM+ds) (AID 1963879); conditions: Potency: viability; also: nearly all actives have a fitted effect of over 35% in size
How it was run: as §1

[6] = Quantitative highthroughput screen to assess conditional lethalithy of P12 Ichikawa cells grown in RPMI1640 with dialyzed fetal bovine serum (RPMI+ds) (AID 1963880); conditions: Potency: P12-Ichikawa viability; also: nearly all actives have a fitted effect of over 35% in size
How it was run: as §1

[7] = Quantitative highthroughput screen to assess conditional lethalithy of P12 Ichikawa cells grown in RPMI1640 with untreated serum (RPMI+s) (AID 1963881); conditions: Potency: viability; also: nearly all actives have a fitted effect of over 35% in size
How it was run: as §1

[8] = Quantitative highthroughput screen to assess conditional lethalithy of SEM cells grown in Human Plasma-Like Medium with dialyzed fetal bovine serum (HPLM+ds) (AID 1963882); also: nearly all actives have a fitted effect of over 35% in size
How it was run: as §1

[9] = Quantitative highthroughput screen to assess conditional lethalithy of SEM cells grown in RPMI1640 with unreated serum (RPMI+s) (AID 1963883); conditions: SEM B-ALL cells, CellTiter-Glo viability, 48 h; viability: at 45.8 µM (top of the series); also: nearly all actives have a fitted effect of over 35% in size
How it was run: as §1

[10] = Quantitative highthroughput screen to assess conditional lethalithy of SEM cells grown in RPMI1640 with dialyzed fetal bovine serum (RPMI+ds) (AID 1963884); conditions: SEM B-ALL cells, RPMI+dialyzed FBS, CellTiter-Glo viability, 48 h; viability: at 45.8 µM (top of the series); also: nearly all actives have a fitted effect of over 35% in size
How it was run: as §1

[11] = Cellular viability qHTS for adrenocortical cancer (ACC) cell line SW-13 (AID 1963989); conditions: SW-13 ACC cells viability, CellTiter-Glo, 48 h; activity (max response): stronger effect = lower value; also: nearly all actives have a fitted effect of over 65% in size
How it was run: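 Compound titrations (up to 46 uM final, in DMSO) were applied to SW-13 cells for 48 h at 37C/5% CO2. Reading used CellTiter-Glo after 20 min at room temperature; fitted curves yielded IC50 and efficacy.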

[12] = Cellular viability qHTS for adrenocortical cancer (ACC) cell line NCI-H295R (AID 1963990); conditions: CellTiter-Glo ATP luminescence, 48 h; series mostly up to 46.1 µM; also: nearly all actives have a fitted effect of over 60% in size
How it was run: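 Readout: CellTiter-Glo luminescence, 20 min RT. Exposure: 48 h, 37C/5% CO2. Cells: NCI-H295R, ITS-DMEM serum-free. Range: up to 46 uM. Analysis: 4PL fit, IC50 plus efficacy.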
Potency is read from the fitted curve at half-maximal effect; tags tell the direction and shape of the fitted curve.

Structure (SMILES) | Potency [1] | Potency [2] | Potency [3] | Potency [4] | Potency [5] | Potency [6] | Potency [7] | Potency [8] | Potency [9] | Potency [10] | Potency [11] | Potency [12]
O=C(NOCC(O)CO)c1cc(Br)c(F)c(F)c1Nc1ccc(I)cc1F (stereo unspecified) | inconclusive: 372 nM [cytotoxic, full curve] | inconclusive: 0.166 µM [cytotoxic, full curve] | inconclusive: 0.0235 µM [cytotoxic, full curve] | inconclusive: 0.132 µM [cytotoxic, full curve] | inconclusive: 18.7 µM [cytotoxic, single point] | inconclusive: 13.2 µM [cytotoxic, partial curve, poor fit] | inconclusive: 0.209 µM [cytotoxic, full curve, poor fit] | inconclusive: 1.66 µM [cytotoxic, full curve] | inconclusive: 3.32 µM [cytotoxic, partial curve] | inconclusive: 0.469 µM [cytotoxic, full curve] | inconclusive: 10 µM [cytotoxic, partial curve] | 
O=C(CCCN1CCN(c2ccc(F)cc2)CC1)NC1c2ccccc2CSc2ccccc21 (stereo unspecified) | inconclusive: 18800 nM [cytotoxic, single point] | inconclusive: 18.7 µM [cytotoxic, partial curve, poor fit] | inconclusive: 20.9 µM [cytotoxic, partial curve] | inconclusive: 14.8 µM [cytotoxic, partial curve, poor fit] | inconclusive: 20.9 µM [cytotoxic, single point] | inconclusive: 13.2 µM [cytotoxic, partial curve] | inconclusive: 14.8 µM [cytotoxic, partial curve] | inactive | inconclusive: 29.6 µM [cytotoxic, partial curve, poor fit] | inconclusive: 18.7 µM [cytotoxic, partial curve, poor fit] |  | inconclusive: 32.6 µM [cytotoxic, single point]
COc1cc(C(=O)N2CCC(N3CCN(C)CC3)CC2)ccc1Nc1ncc2c(n1)N(C)c1ccccc1C(=O)N2C | active: 461 nM and active: 1.32 µM | inconclusive: 14.8 µM [cytotoxic, partial curve] | inconclusive: 9.35 µM [cytotoxic, partial curve] | inconclusive: 11.8 µM [cytotoxic, partial curve] | inconclusive: 13.2 µM [cytotoxic, partial curve] | inconclusive: 9.35 µM [cytotoxic, partial curve] | inconclusive: 14.8 µM [cytotoxic, partial curve] | active: 3.72 µM | inconclusive: 3.32 µM [cytotoxic, full curve, poor fit] |  | inconclusive: 25.1 µM [cytotoxic, partial curve] | active: 12.6 µM
Cc1c(NC(=O)OC[C@@H]2COCCN2)cn2ncnc(Nc3ccc4c(cnn4Cc4cccc(F)c4)c3)c12 | active: 10.3 µM and active: 13.2 µM | inconclusive: 26.4 µM [cytotoxic, partial curve] | inconclusive: 26.4 µM [cytotoxic, single point] | inconclusive: 18.7 µM [cytotoxic, partial curve] | inconclusive: 33.2 µM [cytotoxic, single point] | inconclusive: 26.4 µM [cytotoxic, single point] | inconclusive: 23.5 µM [cytotoxic, single point] |  |  | active: 10.5 µM | active: 15.8 µM | 
CCOc1ccn(-c2ccc(F)cc2)c(=O)c1C(=O)Nc1ccc(Oc2ccnc(N)c2Cl)c(F)c1 | active: 366 nM and active: 525 nM | inconclusive: 37.2 µM [cytotoxic, single point] | inconclusive: 26.4 µM [cytotoxic, partial curve, poor fit] | inconclusive: 20.9 µM [cytotoxic, partial curve] | inconclusive: 23.5 µM [cytotoxic, partial curve] | inconclusive: 20.9 µM [cytotoxic, partial curve] | inconclusive: 20.9 µM [cytotoxic, partial curve] |  |  | active: 2.09 µM | inconclusive: 22.4 µM [cytotoxic, partial curve] | 
